We go through 46 compounds from paper PMC4336329 (PLoS ONE, 2015).

The whole screen tested about 310,000 compounds, of which about 14,000 (4.5%) showed an effect of 50% or more. Effects have a minus sign here. The list shows a part of the results.
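Note: peak tail current of the secondary pulse compared with the same well before compound.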

In the experiment the target is human ether-à-go-go-related gene (hERG) potassium channel (human, UniProt Q12809). In words: primary screen, population patch clamp on CHO cells stably expressing hERG.
human ether-à-go-go-related gene (hERG) potassium channel, sequence (Q12809 whole entry, looked up): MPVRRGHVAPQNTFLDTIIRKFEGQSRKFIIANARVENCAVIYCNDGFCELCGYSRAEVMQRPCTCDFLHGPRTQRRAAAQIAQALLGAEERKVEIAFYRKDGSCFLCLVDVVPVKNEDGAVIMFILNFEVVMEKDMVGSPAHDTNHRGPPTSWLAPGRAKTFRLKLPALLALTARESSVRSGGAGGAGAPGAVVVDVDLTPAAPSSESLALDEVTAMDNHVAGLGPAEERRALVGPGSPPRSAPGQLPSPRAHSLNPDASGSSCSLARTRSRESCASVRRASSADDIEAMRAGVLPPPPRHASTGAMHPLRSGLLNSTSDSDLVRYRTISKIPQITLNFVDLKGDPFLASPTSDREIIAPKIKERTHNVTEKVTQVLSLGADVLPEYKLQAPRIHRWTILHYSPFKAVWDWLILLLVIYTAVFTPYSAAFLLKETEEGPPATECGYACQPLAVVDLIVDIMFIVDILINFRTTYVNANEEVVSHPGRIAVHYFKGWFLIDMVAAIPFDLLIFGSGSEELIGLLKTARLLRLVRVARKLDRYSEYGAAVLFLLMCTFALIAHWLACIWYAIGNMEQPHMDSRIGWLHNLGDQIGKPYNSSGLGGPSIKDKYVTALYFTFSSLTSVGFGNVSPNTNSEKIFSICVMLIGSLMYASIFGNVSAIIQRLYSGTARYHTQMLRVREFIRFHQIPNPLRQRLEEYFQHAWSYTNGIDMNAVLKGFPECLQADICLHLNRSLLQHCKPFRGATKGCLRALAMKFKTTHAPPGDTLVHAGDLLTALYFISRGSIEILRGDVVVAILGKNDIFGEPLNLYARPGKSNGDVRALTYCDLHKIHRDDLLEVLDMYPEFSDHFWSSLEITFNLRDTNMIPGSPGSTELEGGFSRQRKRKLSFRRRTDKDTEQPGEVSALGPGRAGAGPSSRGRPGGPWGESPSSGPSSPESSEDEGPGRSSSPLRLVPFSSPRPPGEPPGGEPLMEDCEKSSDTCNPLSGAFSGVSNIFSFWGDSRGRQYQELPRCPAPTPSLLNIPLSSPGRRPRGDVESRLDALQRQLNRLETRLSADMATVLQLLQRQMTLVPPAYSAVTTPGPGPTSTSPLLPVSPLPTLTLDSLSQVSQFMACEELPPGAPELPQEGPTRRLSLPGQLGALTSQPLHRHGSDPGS
As to `C=CCNC(=S)NNC(=O)C(CC(C)C)CC(C)O` (stereo not shown), the “hERG current change (%, negative = inhibition) at 10uM” value turned out to be 12.5%.
For the compound `COc1ccc(CNC2CC(=O)N(C)C2=O)cc1` (stereo not shown), the “hERG current change (%, negative = inhibition) at 10uM” value was determined as 13.6%.
For the compound `N#Cc1nc(-c2cccc3ccccc23)oc1N`, the “hERG current change (%, negative = inhibition) at 10uM” value is 5.28%.
The same measure for `O=C(OCCN1CCCC1=O)c1cc(F)c(F)c(F)c1F`: 10.5%; for `C=CCn1c(SCC(=O)c2c(N)n(CCC)c(=O)n(C)c2=O)nnc1-c1ccncc1`: 12.6%; for `CCN(CC)S(=O)(=O)c1ccc(C(=O)OC2CCCCC2CN(C)C)cc1` (stereo not shown): -15.8%.
In the case of `Oc1ccccc1C1=Nc2ncnn2C(c2ccc(F)cc2)C1` (stereo not shown), the “hERG current change (%, negative = inhibition) at 10uM” value was -80.8%.
For the compound `Cc1ccc(C(=O)C(OC(=O)c2cnccn2)c2ccccc2)cc1C` (stereo not shown), the “hERG current change (%, negative = inhibition) at 10uM” value is -27.4%.
The same measure for `Cc1c(NC(=O)CN2CCN(c3ccc(O)cc3)CC2)c(=O)n(-c2ccccc2)n1C`: 21%.
In the case of `O=S(=O)(Nc1cc(Cl)ccc1N1CCOCC1)c1ccccc1Cl`, the “hERG current change (%, negative = inhibition) at 10uM” value was -10.1%.
The result for `CCOc1ccc(Oc2ccccc2NC(=O)CCNC(C)=O)cc1` reads 13.8%; that for `C=C(C)C(=O)OCCCCCCOc1ccc(C(=O)O)cc1`, 15.1%.
Consider `CC(C)C[C@H](NC(=O)c1[nH]cnc1C(=O)N[C@H](C)c1ccccc1)C(=O)OCc1ccccc1`, for which the “hERG current change (%, negative = inhibition) at 10uM” value came out at 29.9%.
Turning to `CCC(CC)C(=O)Nc1cccc(C(=O)N2CCOCC2)c1`, the “hERG current change (%, negative = inhibition) at 10uM” value is recorded as 2.17%.
Regarding `O=c1c2c(nc3cc(-c4ccc(F)cc4)[nH]n13)CCCC2`, the “hERG current change (%, negative = inhibition) at 10uM” value is recorded as -10.2%.
The result for `CCOc1ccccc1-c1nnc(SCC(=O)NC2(C#N)CCCC2)o1` reads -19.2%.
As to `COc1ccc(/C(C)=N/NC(=O)c2nnn(-c3nonc3N)c2-c2cccs2)cc1`, the “hERG current change (%, negative = inhibition) at 10uM” value came to 12.2%.
Turning to `N=c1c(S(=O)(=O)c2ccc(Br)cc2)cc2c(=O)n3ccccc3nc2n1C1CCCC1`, the “hERG current change (%, negative = inhibition) at 10uM” value is recorded as 9.15%.
The same measure for `CCN1CCCC(OC(=O)Nc2ccccc2)C1` (stereo not shown): 2.47%.
For `COc1ccc(N2CCN(C(=O)CCS(=O)(=O)c3cccc4nsnc34)CC2)cc1`, the “hERG current change (%, negative = inhibition) at 10uM” value is listed as -23.9%.
As to `O=C(NN=C1CCCC1)c1ccccc1OCc1ccc(Cl)cc1`, the “hERG current change (%, negative = inhibition) at 10uM” value was -3.06%.
The result for `Cc1ccc(S(=O)(=O)NNC(=O)C(O)(c2ccccc2C)c2ccccc2C)cc1` reads -14.7%; that for `CCc1nnc(NC(=O)CSc2nc3c(C)cccc3[nH]2)s1`, 0.952%.
Regarding `CCOc1ccccc1N(C(=O)c1snc(C(N)=O)c1N)C(C(=O)NC1CCCC1)c1cccs1` (stereo not shown), the “hERG current change (%, negative = inhibition) at 10uM” value is recorded as -17.5%.
In the case of `O=C(COc1ccc(Cl)cc1)N1CCN(c2cccc(C(F)(F)F)c2)CC1`, the “hERG current change (%, negative = inhibition) at 10uM” value was -49.1%.
For `C/C(Cl)=C\Cn1c(O)c(N=O)c2ccccc21`, the “hERG current change (%, negative = inhibition) at 10uM” value is given as -22%.
As to `COc1cc(/C=N/Nc2ccc(F)cc2F)cc(OC)c1O`, the “hERG current change (%, negative = inhibition) at 10uM” value is on record as -2.17%.
`COc1ccccc1C(=O)C1CCCN(C(=O)c2cccnc2SC)C1` (stereo not shown): the “hERG current change (%, negative = inhibition) at 10uM” value was 15.2%.
`O=S(=O)(c1cccc2cccnc12)N1CCN(Cc2ccc3c(c2)OCO3)CC1`: the “hERG current change (%, negative = inhibition) at 10uM” value was -7.81%.
Regarding `CCc1cc(=O)oc2c(C)c(OC(C)C(=O)NCCCN3CCOCC3)ccc12` (stereo not shown), the “hERG current change (%, negative = inhibition) at 10uM” value was 3.21%.
`CC(Oc1ccccc1)C(=O)Nc1nnc(C2CCCCC2)s1` (stereo not shown): the “hERG current change (%, negative = inhibition) at 10uM” value is reported as -41.7%.
For `COc1cccc(/C=N/NC(=O)C[n+]2ccccc2)c1O.[Cl-]`, the “hERG current change (%, negative = inhibition) at 10uM” value is given as 6.33%.
Take `CCCCCCOC(=O)CCc1c(C)nc(N)[nH]c1=O`: the “hERG current change (%, negative = inhibition) at 10uM” value is 2.82%.
For the compound `Cc1cccc(CC(=O)N2CCOCC2)c1`, the “hERG current change (%, negative = inhibition) at 10uM” value is recorded as 16.6%.
As for `COc1ccccc1-n1cn[nH]c1=S`, the “hERG current change (%, negative = inhibition) at 10uM” value is 6.55%.
In the case of `CCc1ccc2c(COn3nnc4ccc(S(=O)(=O)N(C)C)cc43)cc(=O)oc2c1`, the “hERG current change (%, negative = inhibition) at 10uM” value is reported as -30.2%.
Take `CC1(C)Cc2nc3sc4c(=O)[nH]cnc4c3cc2CS1`: the “hERG current change (%, negative = inhibition) at 10uM” value was 8.2%.
Turning to `Cc1nnc(SCC(=O)N2CCN(S(=O)(=O)c3ccccc3)CC2)[nH]c1=O`, the “hERG current change (%, negative = inhibition) at 10uM” value is on record as -5.2%.
The same measure for `CNC(=O)CCc1ccc(OC)cc1`: 13.8%; for `O=C1COc2ccc3ccccc3c21`: -4.35%.
`O=C(CSCc1ccco1)N1CCc2ccccc21`: the “hERG current change (%, negative = inhibition) at 10uM” value was -6%.
The same measure for `O=C(c1cc(S(=O)(=O)N2CCCCC2)ccc1F)N1CCCCC1`: -10.3%; for `COc1ccc(-c2noc(C3CCCN(C(=O)c4ccc(C)cc4)C3)n2)cc1` (stereo not shown): -15.1%; for `COc1ccc(NC(=O)COC(=O)CNS(=O)(=O)c2ccc(F)c(F)c2F)cc1OC`: 21.3%.
For `CC1(C)CC(NC(=O)CC2CCCCC2)CC(C)(C)N1`, the “hERG current change (%, negative = inhibition) at 10uM” value came to 12.1%.
As for `COC(=O)c1ccccc1NC(=O)N1CCN(c2ccc(F)cc2)CC1`, the “hERG current change (%, negative = inhibition) at 10uM” value was -32.7%.
